Results taken from US7271245B2, “Methods and compositions for inhibition of metastasis” (The Scripps Research Institute, priority 2004, dated 2007).
“Also recorded” adds a separate entry of the source. Blank lines part the entries; values can stand above or below the molecule they belong to.

Columns and labels:
activated integrin αvβ3 = molecular target: T1, activated integrin αvβ3 (Homo sapiens, UniProt P05106+P06756); experiment: Flow cytometry, scFv binding to MDA-MB 435 variants and patient metastatic breast cancer cells
T1 construct: endogenous in cells; host or cells: MDA-MB 435 variants (Parent Combo, Bone, Lung) and patient blood-derived BMS cells; also β3-negative cells re-transfected with β3WT or β3D723R cDNA
Procedure: FIGS. 1A, 1B, 1C. Patient derived scFvs Bc-12 and Bc-15 recognize tumor cell integrin αvβ3 in a cation and activation dependent manner. Flow cytometric analyses in TBS with or without 1 mM Ca^2+, 1 mM Mg^2+, or 0.2 mM Mn^2+ as indicated. Binding of soluble scFv detected after incubation with anti-Flag M2 murine mAb followed by FITC-anti mouse F(ab′)2. (A) scFv binding to human melanoma cells (M21: αvβ3 plus other αv integrins) (M21-LIIb: αIIbβ3, no αv integrins) or lung adenocarcinoma cells (UCLA-P3: αv integrins, no β3 integrin). (B) scFv binding to M21 melanoma cells. (C) scFv binding to variants of MDA-MB 435 human breast cancer cells that lack (β^3−) or express αvβ3 either in a non-activated (β3WT, ParentCo) or activated form (β3D723R, Bone, Lung, and BMS metastatic cancer cells isolated from breast cancer patient blood).
FIGS. 2A, 2B, 2C, 2D. Translation of scFv DNA sequence analyses. (A) Consensus amino acid sequence (SEQ ID NO: 9) of Bc-12 (SEQ ID NO: 7) and Bc-15 (SEQ ID NO: 8) (specific for activated αvβ3) compared to Bc-20 (specific for αv) (SEQ ID NO: 10). (B) scFv binding to BMS human breast cancer cells by flow cytometry, indicating loss of Bc-12 and Bc-15 binding when CDR-H3 RGD is mutated to RGE (Mut-12 and Mut-15). […] (C) cDNA sequences for scFv Bc-12 (SEQ ID NO: 1) and scFv Bc-15 (SEQ ID NO: 3). The cDNA encoding scFv Bc-12 has an ATCC accession number PTA-6303, date of deposit: Nov. 12, 2004. The cDNA encoding scFv Bc-15 has an ATCC accession number PTA-6304, date of deposit: Nov. 12, 2004. (D) cDNA sequences for scFv Mut-12 (SEQ ID NO: 5) and scFv Mut-15 (SEQ ID NO: 6). scFv Mut-12 is the RGE containing mutant version of scFv Bc-12. scFv Mut-15 is the RGE containing mutant version of scFv Bc-15.
Flow cytometry. scFv binding to human tumor cells was analyzed by flow cytometry, initially with cloned scFv phage and then with purified scFv protein. Per sample, 2×10^5 tumor cells were blocked with goat serum and incubated either with scFv phage (2-5×10^10) (1 h at RT) followed by mouse anti-M13 mAb (Serotec) (30 min on ice) and goat FITC-anti mouse (Pierce) (30 min on ice), or with purified scFv (1.25 to 40 μg/ml, routinely 10 to 15 μg/ml) (45 min on ice), followed by mouse anti-FLAG mAb M2 (Sigma) (30 min on ice) and goat FITC-anti mouse. Binding/washing buffer was TBS with or without divalent cations (1 mM Ca^2+, 1 mM Mg^2+, 0.2 mM Mn^2+). Alternatively, tumor cells were washed in 10 ml of plasma (prepared freshly from human blood anticoagulated with 50 nM D-Phe-D-Pro-D-arginyl chloromethyl ketone, PPACK, Felding-Habermann et al., J. Biol. Chem. 271: 5892-5900, 1996), resuspended in plasma and then incubated sequentially, without washing, with purified scFv (45 min on ice), followed by anti-FLAG M2 (30 min on ice) and FITC-anti mouse (30 min on ice). All samples were counter stained with propidium iodide (PI) and analyzed on a Becton-Dickinson FACScan, with live gate set to exclude PI positive cells.
To test this further, the effects of cation combinations on Bc-12 and Bc-15 binding were examined. […] Smith, Methods Cell Biol. 69: 247-259, 2002; Hughes et al., J. Biol. Chem. 271: 6571-6574, 1996. To confirm that scFv Bc-12 and Bc-15 selectively recognize αvβ3 in its activated form, binding of these antibodies to in vitro generated and in vivo selected variants of the MDA-MB 435 breast cancer cell model was tested. […] In contrast, Bc-12 and Bc-15 were able to bind an MDA-MB 435 variant expressing constitutively activated mutant αvβ3D723R, without exogenous stimulation with Mn^2+. […] Importantly, scFvs Bc-12 and Bc-15 recognized in vivo selected MDA-MB 435 variants from bone and lung metastases, as well as metastatic cells isolated from breast cancer patient blood samples (FIG. 1C). These cells express αvβ3 in a constitutively activated form. Felding-Habermann et al., Proc. Natl. Acad. Sci. U.S.A 98: 1853-1858, 2001; Rolli et al., Proc. Natl. Acad. Sci. U.S.A 100: 9482-9487, 2003.

[1] = test system: human breast cancer cell lines, isolated from patient blood samples; experiment: Growth of breast cancer cell cultures in presence of scFv; assay type: cell-based; conditions: 2 μM scFv, 4 days after seeding

T1 sequence (P06756 31-889 limits assumed): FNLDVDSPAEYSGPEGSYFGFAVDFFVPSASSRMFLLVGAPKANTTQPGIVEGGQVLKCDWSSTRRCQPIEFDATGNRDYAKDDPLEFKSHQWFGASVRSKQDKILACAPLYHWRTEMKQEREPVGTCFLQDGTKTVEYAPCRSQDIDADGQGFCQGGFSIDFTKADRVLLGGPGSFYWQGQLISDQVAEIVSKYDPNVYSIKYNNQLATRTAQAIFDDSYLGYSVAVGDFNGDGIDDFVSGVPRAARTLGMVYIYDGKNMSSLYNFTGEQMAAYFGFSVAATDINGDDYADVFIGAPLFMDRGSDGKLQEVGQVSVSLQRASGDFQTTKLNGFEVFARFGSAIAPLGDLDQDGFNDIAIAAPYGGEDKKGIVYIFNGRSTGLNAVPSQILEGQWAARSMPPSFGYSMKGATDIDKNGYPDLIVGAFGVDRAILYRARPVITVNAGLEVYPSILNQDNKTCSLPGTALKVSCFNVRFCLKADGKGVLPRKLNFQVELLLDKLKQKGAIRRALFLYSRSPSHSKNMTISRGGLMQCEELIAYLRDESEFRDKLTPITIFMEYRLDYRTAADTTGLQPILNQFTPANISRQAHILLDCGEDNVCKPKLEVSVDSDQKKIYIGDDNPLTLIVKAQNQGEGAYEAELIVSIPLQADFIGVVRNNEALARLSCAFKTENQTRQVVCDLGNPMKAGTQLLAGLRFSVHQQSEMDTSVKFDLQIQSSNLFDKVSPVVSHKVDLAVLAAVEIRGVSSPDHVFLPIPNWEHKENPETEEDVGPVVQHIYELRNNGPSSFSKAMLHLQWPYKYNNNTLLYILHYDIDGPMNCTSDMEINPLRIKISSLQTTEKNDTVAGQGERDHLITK
T1 sequence (P06756 891-1048 limits assumed): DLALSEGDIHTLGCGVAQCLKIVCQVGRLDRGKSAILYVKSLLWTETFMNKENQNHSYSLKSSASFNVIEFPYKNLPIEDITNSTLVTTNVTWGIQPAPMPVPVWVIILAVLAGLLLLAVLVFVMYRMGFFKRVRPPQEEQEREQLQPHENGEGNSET
T1 sequence (P05106 27-788): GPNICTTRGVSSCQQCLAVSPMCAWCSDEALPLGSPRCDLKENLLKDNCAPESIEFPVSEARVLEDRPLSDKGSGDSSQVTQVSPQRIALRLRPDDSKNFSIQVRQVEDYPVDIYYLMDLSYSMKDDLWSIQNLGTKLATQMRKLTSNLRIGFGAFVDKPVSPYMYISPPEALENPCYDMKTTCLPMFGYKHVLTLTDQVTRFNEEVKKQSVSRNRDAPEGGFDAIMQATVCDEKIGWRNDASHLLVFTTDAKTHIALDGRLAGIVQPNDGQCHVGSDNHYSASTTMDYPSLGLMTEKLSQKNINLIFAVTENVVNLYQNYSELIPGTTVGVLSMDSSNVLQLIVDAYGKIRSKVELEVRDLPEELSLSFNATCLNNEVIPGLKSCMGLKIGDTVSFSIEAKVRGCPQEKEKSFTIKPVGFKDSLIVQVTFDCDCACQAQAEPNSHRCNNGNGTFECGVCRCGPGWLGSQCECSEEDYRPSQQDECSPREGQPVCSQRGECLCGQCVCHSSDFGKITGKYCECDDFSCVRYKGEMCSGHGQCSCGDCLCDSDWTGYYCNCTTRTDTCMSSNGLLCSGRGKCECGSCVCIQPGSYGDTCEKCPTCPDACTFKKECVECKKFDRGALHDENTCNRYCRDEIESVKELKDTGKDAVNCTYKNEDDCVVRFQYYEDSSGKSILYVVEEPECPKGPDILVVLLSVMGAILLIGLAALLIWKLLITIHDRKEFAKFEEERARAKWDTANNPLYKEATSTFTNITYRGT

recognition of in vivo selected MDA-MB 435 variants from bone and lung metastases (activated integrin αvβ3; constitutively activated αvβ3): recognized | recognition of metastatic cells isolated from breast cancer patient blood samples (activated integrin αvβ3; constitutively activated αvβ3): recognized | binding to MDA-MB 435 Parent Combo cells (activated integrin αvβ3; non-activated αvβ3): same Mn^2+ dependence | binding to β3 wild type expressing MDA-MB 435 cells (activated integrin αvβ3; β3WT, non-activated αvβ3, without Mn^2+): failed to bind | binding to β3 wild type expressing MDA-MB 435 cells with Mn2+ (activated integrin αvβ3; β3WT, with Mn^2+): recognized when activated with Mn^2+
B1: Bc-15: patient derived human scFv antibody against activated αvβ3 with RGD motif in CDR-H3; cDNA ATCC PTA-6304 (protein)
scFv: MAQVQLVQSGAEVKEPGSSVKVSCKASGGTFSSYAIYWVRQAPGQGLEWMGWINPDSGDTNSAQQFQGRVTMTRDTSISTAYMELSRLRSDDTAMYYCARPPRGDGPDYWGQGTLVTVSSGGGGGS[letters of about 100 residues not shown]RGLGGLVDYKDDDDK
growth of breast cancer cell lines [1]: retarded

B2: Mut-15: RGE containing mutant version of scFv Bc-15 (protein)
chain: MAQVQLVQSGAEVKEPGSSVKVSCKASGGTFSSYAIYWVRQAPGQGLEWMGWINPDSGDTNSAQQFQGRVTMTRDTSISTAYMELSRLRSDDTAMYYCARPPRGEGPDYWGQGTLVTVSSGGGGGS[letters of about 100 residues not shown]RGLGGLVDYKDDDDK
binding of RGE mutated scFv to human breast cancer cells (activated integrin αvβ3; BMS cells, compared with parent RGD scFv): abolished; also recorded: equivalent to negative control | growth of breast cancer cell lines [1]: no effect
